Results published in the supplement of paper PMC11417369.
Some of the results follow.

Test system: PfHDP1 homeodomain (GST-tagged)
Experiment: gcPBM binding intensity (ln(normalized median fluorescence intensity)); higher = stronger DNA binding
Outline: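 Plasmodium falciparum DNA-binding domains carrying a GST tag were expressed in E. coli and applied for 1 h, at about 25 μg on average, to an Agilent 4 × 180k array. The array held primer-extended double-stranded 36-bp intergenic genomic probes together with negative controls, and binding took place in 1× PBS with 1% milk, 0.2 mg/ml BSA, 0.5% salmon testes DNA and 0.03% Triton X-100. An Alexa488 anti-GST antibody detected bound protein, and the array was scanned at 488 nm. Binding intensity is taken as the highest Masliner-normalised natural-log median intensity across replicate spots of either probe orientation.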

Sequence	gcPBM binding intensity (ln)
TTAAAAAAATATAATACACACCAAAAATATGCACAT [CACACA_site5209]	10.3
CATATATAACAATTCTCACACATAAAAAAAAAAAAT [CACACA_site4564]	6.71
AAAATAAAATATTTCTGTACTTATAACTATTCTATA [XGTACX_site8007]	6.13
ATAAAATGATAAATTTGTACACAAAAAAAAAAAAAA [XGTACX_site964]	6.16
GGGTATACAAATAAACGTACAAACTCATAAAAAAAA [XGTACX_site3191]	6.33
TAAATAAGCACATACACACATACATACATACATAAA [CACACA_site4017]	6.95
AACCCCGTGGAAATATGTACATATAAATATATAAAT [XGTACX_site2094]	7.04
AAATAAATCTTATGCACACAAATAATTAATTAAACA [CACACA_site1693]	10.7
TATTTTTTTCTTACATACTAATTTGGTACTCACATA [TGCATGCA_negctrl_site81]	6.75
AGAGTTCTCATATGCACACAAAAAACTTTCATTTAT [CACACA_site45]	10.2
TTTTTGCCATATTACACACACACATGTAAACCCCCT [CACACA_site1647]	7.77
GTGAAATATGCAAACACACACGAGAAAAATGTATAT [CACACA_site7488]	6.99
CAAAACAAAACGTATGCACACAATTAATATATTAAA [CACACA_site3405]	9.45
CATATAAAAATGTGCACACACACACCCATATATATT [CACACA_site1526]	10.5
AAAATTAATAAATAAACACACATATATATATATATA [CACACA_site2598]	9.33
TTGATTACACTGAAGTGTACATATATATATATATAT [XGTACX_site3532]	9.42
AATATCCACATTAGGAGTACACAGCTAACTGTTTGA [XGTACX_site3357]	6.28
AAATAATAAAAAAAATGTACACGTAAATATTATATT [XGTACX_site8125]	6.99
AAAAAAAAAAGAAACACACACATTTGTATATAATAT [CACACA_site2078]	6.77

Sequence	gcPBM binding intensity (ln)
TTTTATATAAAATCGTGTACATACCATTTCCTATTA [XGTACX_site5159]	6.77
TAGATAAACAAGAAATGTACAAACGTAAATATGTTC [XGTACX_site2373]	6.18
ATATTTTTTTTTTCGTGTACGCATAAATATATCTAA [XGTACX_site3360]	6.64
TAAAAAATAAATATATGTACATATTTATTTTTTTTT [XGTACX_site850]	6.19
ATTGAATTCCAACTGGTGCACCAGTAAGATTGAAAA [GTGCAC_site9895]	10.1
ATAAATAAGATATATACACACATATCTATACATATT [CACACA_site6369]	6.56
ATTTAAGAAAAAAGTTGTACTTATTTATTTTTATTT [XGTACX_site5561]	5.83
GGCTAAAAGGGGCACACACACAAAAAAAAAAAAAAA [CACACA_site3288]	6.57
AATCCACTTTTTTATGTTATACAATATAAATTAAAT [XGTACX_negctrl_site446]	6.71
ATATATTATTTCTAGTGTACATACCCATATATAATA [XGTACX_site8902]	7.13
TATTGATTTATAAACACACACTCGAAGATGTTTAAC [CACACA_site4760]	6.56
AAGAAAAAAGTTATTAGTACACATTATAATAAAAAG [XGTACX_site3527]	6.66
AATACTAAAAAGTGTACACATACATAAAAAATTGCA [CACACA_site5620]	7.24
CATTATGTTGTAAATACACACATACATATACATACA [CACACA_site8143]	6.76
TATATATATGTAAATCGTACAAATTATATATATCAT [XGTACX_site2821]	6.25
TATATCTCATAGTATACACACACACCCACCCACATA [CACACA_site8513]	7.7
TAATTTTCTTTTTATCGTTTTTTTTTTTTTTTTTTT [XGTACX_negctrl_site432]	6.62
GGGTTTTTTATTAATACATGCATGGAAACGCACTAT [TGCATGCA_site1000]	8.29
AAATTCATAAAAATATTTTATAATTATATATAGAAT [TGCATGCA_negctrl_site343]	6.34

Sequence	gcPBM binding intensity (ln)
ATATATATATAATTTGTACACACAAATATGCATATA [CACACA_site9136]	8.57
AAGAAAAACAATGAGATAAAGAAGAGAAAATATGTC [TGCATGCA_negctrl_site415]	6.88
ATAAATATGTAAAAAACATGCAAAAAATTAAAGACA [TGCATGCA_site912]	7.22
TTATTAAATAAAATCATGCACACAATATATATTTTA [CACACA_site2496]	8.65
GTTATTAAACAGAAAAGTACATATGTATATTAAAAT [XGTACX_site3724]	6.8
TAAAAAAAAAGAAGCTGTACTAAAAAATTTATATTA [XGTACX_site7408]	5.82
TTATTACATAACAATATACACACTATTGATTAAAGA [CACACA_site2933]	6.56
GGAAACAAAAAATATATACACACTAAACATAAAAAA [CACACA_site20]	6.86
TCATAGTAGAAACACACACACACACCCATATATATA [CACACA_site1737]	6.88
AACGCACATATATTTATGTATATATATATATATATA [GTGCAC_negctrl_site478]	9.22
ACATATATTTTTTTTTGTACATATAAATATATATAT [XGTACX_site6491]	7.43
TATTTTTTTTTATTTTTTTTTATTTTGTTTTTTTAT [TGCATGCA_negctrl_site315]	6.33
ATTAAAATATAAGTCACACATATATATATATATATA [CACACA_site6145]	9.49
ATATATTTTCCTTCAAGTACACATATAAATGTGTAT [XGTACX_site6633]	6.66
AAAAAAATAATCATCACACACGGAGAATGTCCAATA [CACACA_site5305]	6.31
AACGTAAAACATATCTATCAAAATAAATCATTAATC [TGCATGCA_negctrl_site68]	6.18
AATATAATAATATTTTGTACATATCCTATGTATGAG [XGTACX_site8601]	6.5
CACGCACGCAGACACACACACACACGCACATATATA [CACACA_site6303]	7.56
